This passage reports binding signal (log2 fold change) results from article PMC5892938.

The list shows a part of the results. The exact form of the protein is not confirmed.

The assay concerns the target GST-SBP-ILF3 (Homo sapiens) (UniProt Q12906). Description: targeted RNA Bind-n-Seq. Particulars: RBNS binding buffer: 25 mM Tris pH 7.5, 150 mM KCl, 3 mM MgCl2, 0.1% Tween, 0.5 mg/mL BSA, 1 mM DTT; 27 nM protein, 750 pM RNA pool; temperature not stated; high values mean tight binding; sequences stand for … in GGGUAAAAGCGAGGUGAA…CGGGACAAGUAUUAUGGG
In the case of “UUUUUUUUUUGAGAUCGGCGCGAUCUCCUA [tttttgagapaired]”, the binding signal (log2 fold change) stood at 0.549.

As to “UUUUUUUUUUGAGAGCGUGGCGCUCUUCUG [tttttgagapaired]”, the binding signal (log2 fold change) is 0.516.

For “UUUUUUUUUUGAGACGGCGGCCGUCUCCUG [tttttgagapaired]”, the binding signal (log2 fold change) amounted to 1.09.

Turning to “UUUUUUUUUUGAGAGGGGGCCCCUCUCCAG [tttttgagapaired]”, the binding signal (log2 fold change) is 1.3.

As for “UUUUUUUUUUGAGAAGGGGUCCUUCUCCGG [tttttgagapaired]”, the binding signal (log2 fold change) is 0.271.

For “UUUUUUUUUUGAGAGGGGUACCCUCUCCUA [tttttgagapaired]”, the binding signal (log2 fold change) worked out at 0.157.

For the sequence “GUGGUGUGUGUUGGACUCUAACACACAUCA [gtspaired]”, the binding signal (log2 fold change) is -0.207.

In the case of “GUGGUUGGUGUUGGCGUCUAACACCAGCCG [gtspaired]”, the binding signal (log2 fold change) is -0.686.

Take “GUGUGUGGUGUUGGCCCCUAACACCACGCG [gtspaired]”: the binding signal (log2 fold change) is -0.457.

Take “UUUUUUUUUUGAGACCGAGUCGGUCUUCUA [tttttgagapaired]”: the binding signal (log2 fold change) was 0.729.

As to “UUUUUUUUUUGAGACCGAAACGGUCUCCGG [tttttgagapaired]”, the binding signal (log2 fold change) was determined as 0.473.

“UUUUUUUUUUGAGACGGCGACCGUUUCCUG [tttttgagapaired]”: the binding signal (log2 fold change) was 0.778.

For the sequence “UUUUUUUUUUGAGAGGGCAACCCUCUUCUG [tttttgagapaired]”, the binding signal (log2 fold change) amounted to 0.167.

In the case of “UUUUUUUUUUGAGAUGGAUGCCAUCUCCAG [tttttgagapaired]”, the binding signal (log2 fold change) came out at 0.31.

With “UUUUUUUUUUGAGAGCGUAACGCUCUUCUA [tttttgagapaired]”, the binding signal (log2 fold change) was determined as 0.425.

For the sequence “UUUUUUUUUUGAGAGCGUGACGCUCUCCAG [tttttgagapaired]”, the binding signal (log2 fold change) was determined as 0.374.

In the case of “GUGUGUUGUGUUGGCGCCUAACACAGCGCA [gtspaired]”, the binding signal (log2 fold change) was -0.576.

With “UUUUUUUUUUGAGAGCGAGGCGUUCUCCAG [tttttgagapaired]”, the binding signal (log2 fold change) was found to be 0.42.

On to “UUUUUUUUUUGAGAUCGGGACGAUCUCCAG [tttttgagapaired]”, for which the binding signal (log2 fold change) was -0.0116.

Consider “UUUUUUUUUUGAGACGGACACCGUCUCCGG [tttttgagapaired]”, for which the binding signal (log2 fold change) came out at 0.513.

“UUUUUUUUUUGAGAGUGUGGCAUUCUCCGG [tttttgagapaired]”: the binding signal (log2 fold change) amounted to 0.478.

With “GUGUUGUGUGUUGGAGUCUAACACACAGCG [gtspaired]”, the binding signal (log2 fold change) was -0.706.

Take “UUCUUCUCUCCUCCACUGGAGGGGGGAAGA [ctspaired]”: the binding signal (log2 fold change) is -0.358.

For “UUUUUUUUUUGAGAGGGGAACCCUCUCCUG [tttttgagapaired]”, the binding signal (log2 fold change) was found to be 0.255.

For the sequence “UUUUUUUUUUGAGACUGUCUCAGUCUCCAG [tttttgagapaired]”, the binding signal (log2 fold change) was determined as 0.348.

As to “GUGUGUGGUGUUGGUCUCUAACACCACGCG [gtspaired]”, the binding signal (log2 fold change) is -0.81.

With “GUUGUGUGUGUUGGUGCCUAACACACACGA [gtspaired]”, the binding signal (log2 fold change) was -0.173.

As to “UUUUUUUUUUGAGAGCGUACCGUUCUCCGG [tttttgagapaired]”, the binding signal (log2 fold change) was 0.639.

Regarding “GGUGUGUGUGUUGGUGUCUAACACACGCGC [gtspaired]”, the binding signal (log2 fold change) was -0.761.

Turning to “GUGUGUGGUGUUGGCUCCUAACACCGCGCG [gtspaired]”, the binding signal (log2 fold change) was -0.645.

As for “GUGUGGUGUGUUGGCAUCUAACACAUCGCG [gtspaired]”, the binding signal (log2 fold change) was -0.793.

As for “UUUUUUUUUUGAGACGGGAACUGUCUCCUG [tttttgagapaired]”, the binding signal (log2 fold change) amounted to 0.795.

For the sequence “GUGUGGUGUGUUGGUGCCUAACACAUCGCA [gtspaired]”, the binding signal (log2 fold change) was -0.763.

As for “UUUUUUUUUUGAGAAGGGACCCUUCUCCAG [tttttgagapaired]”, the binding signal (log2 fold change) is -0.0508.

Take “UUUUUUUUUUGAGAACGAUGUAAUAAAAAA [ttttgagaunpaired]”: the binding signal (log2 fold change) came out at 0.0917.

For the sequence “UUUUUUUUUUGAGAGGGAACCCCUCUCCAG [tttttgagapaired]”, the binding signal (log2 fold change) is 0.0691.

As for “UUCUCUCUUCCUCCGCCGGAGGGAGAGGGA [ctspaired]”, the binding signal (log2 fold change) was -0.222.

For “UUUUUUUUUUGAGACCGAUCCGGUUUCCUA [tttttgagapaired]”, the binding signal (log2 fold change) worked out at 0.282.

For “GUGUGGUGUGUUGGAUUCUAACACAUCACA [gtspaired]”, the binding signal (log2 fold change) was -0.231.

As for “GGUGUGUGUGUUGGAGCCUAACACAUAUAC [gtspaired]”, the binding signal (log2 fold change) is -0.537.

In the case of “GGUGUGUGUGUUGGCGUCUAACACAUACAC [gtspaired]”, the binding signal (log2 fold change) was -0.341.

As to “UUCUCUCUUCCUCCAAUGGAGGGAGGGAGA [ctspaired]”, the binding signal (log2 fold change) was -0.39.

Consider “GGUGGUUGUGUUGGCUUCUAACACAGCUAC [gtspaired]”, for which the binding signal (log2 fold change) was -0.675.

On to “UUUUUUUUUUGAGACUGAUGCAGUCUUCUA [tttttgagapaired]”, for which the binding signal (log2 fold change) is 0.445.

As for “GUGGUGUGUGUUGGAACCUAACACAUACUA [gtspaired]”, the binding signal (log2 fold change) was -0.687.

For “GUGGUGUGUGUUGGCCUCUAACACACAUCG [gtspaired]”, the binding signal (log2 fold change) was -0.649.

For “UUUUUUUUUUGAGACUGCUACAGUCUCCAG [tttttgagapaired]”, the binding signal (log2 fold change) worked out at 0.302.

In the case of “UUUUUUUUUUGAGAUCGAAGCGAUCUUCUA [tttttgagapaired]”, the binding signal (log2 fold change) was -0.104.

On to “UUUUUUUUUUGAGAUGGGAUCCGUCUCCGG [tttttgagapaired]”, for which the binding signal (log2 fold change) came out at 0.421.

In the case of “UUUUUUUUUUGAGACUGGUCCAGUCUCCAG [tttttgagapaired]”, the binding signal (log2 fold change) amounted to 0.847.

Regarding “GGUUGUUGUGUUGGUCCCUAACACAACGAC [gtspaired]”, the binding signal (log2 fold change) is -0.453.

In the case of “UUCUCUCCUCCUCCGCUGGAGGGGGGGAGA [ctspaired]”, the binding signal (log2 fold change) was -0.828.

Take “UUUUUUUUUUGAGAACGUAACGUUCUCCAG [tttttgagapaired]”: the binding signal (log2 fold change) came to 0.286.

Turning to “GUGGUGUGUGUUGGCCCCUAACACAUACUA [gtspaired]”, the binding signal (log2 fold change) was -0.176.

As for “UUUUUUUUUUGAGAGCGUAGCGUUCUCCAG [tttttgagapaired]”, the binding signal (log2 fold change) was 0.583.

For the sequence “GGUGUGUGUGUUGGUGCCUAACACACGCGC [gtspaired]”, the binding signal (log2 fold change) was -0.259.

With “UUUUUUUUUUGAGAGGGAUACCCUCUCCUG [tttttgagapaired]”, the binding signal (log2 fold change) came to 0.28.

Take “GUGGUGUGUGUUGGUGCCUAACACACGCCG [gtspaired]”: the binding signal (log2 fold change) is -0.571.

For the sequence “GUGUUGUGUGUUGGCGCCUAACACACAGCA [gtspaired]”, the binding signal (log2 fold change) was -0.446.

Regarding “UUUUUUUUUUGAGAAGGGAUCCUUCUCCUA [tttttgagapaired]”, the binding signal (log2 fold change) is -0.176.

Regarding “UUUUUUUUUUGAGAGGGUGACCCUUUCCAG [tttttgagapaired]”, the binding signal (log2 fold change) was -0.0207.

Regarding “UUUUUUUUUUGAGAUCGAAACGGUCUCCAG [tttttgagapaired]”, the binding signal (log2 fold change) was 0.131.

Regarding “GGUUGGUGUGUUGGCCUCUAACACACCAGC [gtspaired]”, the binding signal (log2 fold change) is -0.727.

Regarding “UUUUUUUUUUGAGACUGCAGCAGUCUCCGG [tttttgagapaired]”, the binding signal (log2 fold change) worked out at 0.578.

“UUUUUUUUUUGAGACCGAAUCGGUCUCCGG [tttttgagapaired]”: the binding signal (log2 fold change) turned out to be 0.322.

For “UUUUUUUUUUGAGACGGUGACCGUUUCCUG [tttttgagapaired]”, the binding signal (log2 fold change) was determined as 0.713.

“UUUUUUUUUUGAGACCGUCACGGUUUCCAG [tttttgagapaired]”: the binding signal (log2 fold change) turned out to be 0.559.

Take “UUUUUUUUUUGAGAUCGAGUCGAUCUCCGG [tttttgagapaired]”: the binding signal (log2 fold change) turned out to be 0.292.

As to “UUUUUUUUUUGAGAACGGAGCGUUCUCCUA [tttttgagapaired]”, the binding signal (log2 fold change) is 0.252.

For the sequence “UUUUUUUUUUGAGAGGGACCCCCUCUCCGG [tttttgagapaired]”, the binding signal (log2 fold change) came to 0.534.

For “GUGGUGUGUGUUGGUACCUAACACAUACCA [gtspaired]”, the binding signal (log2 fold change) is -0.696.

As to “UUUUUUUUUUGAGACUGAUACAGUCUUCUA [tttttgagapaired]”, the binding signal (log2 fold change) came to 0.176.

Turning to “UUUUUUUUUUGAGACUGAAUCAGUCUCCGG [tttttgagapaired]”, the binding signal (log2 fold change) is 0.106.

As for “UUUUUUUUUUGAGACGGAACCCGUCUCCGG [tttttgagapaired]”, the binding signal (log2 fold change) worked out at 0.416.

“UUCCUUCUUCCUCCUAGGGAGGGAGAGGGA [ctspaired]”: the binding signal (log2 fold change) was -0.694.

Turning to “UUUUUUUUUUGAGAGGGGAUCCCUCUCCUG [tttttgagapaired]”, the binding signal (log2 fold change) amounted to 0.439.

With “UUUUUUUUUUGAGAUGGUGUCCAUUUCCAG [tttttgagapaired]”, the binding signal (log2 fold change) amounted to 0.857.

For “UUUUUUUUUUGAGACUGGAUCAGUUUCCUA [tttttgagapaired]”, the binding signal (log2 fold change) turned out to be 0.351.

Consider “GUGUGGUGUGUUGGCGCCUAACACACUACG [gtspaired]”, for which the binding signal (log2 fold change) was -0.692.

For the sequence “GGUUGGUGUGUUGGUCCCUAACACACUAAC [gtspaired]”, the binding signal (log2 fold change) is -0.673.

Regarding “UUUUUUUUUUGAGAGGGUAUCCUUCUCCGG [tttttgagapaired]”, the binding signal (log2 fold change) turned out to be 0.169.

For the sequence “GUUGGUGGUGUUGGUACCUAACACCGCCAG [gtspaired]”, the binding signal (log2 fold change) was -0.333.

“UUUUUUUUUUGAGAGCGGGGCGUUCUCCUA [tttttgagapaired]”: the binding signal (log2 fold change) was found to be 0.563.

Take “UUCUUCUCUCCUCCGUGGGAGGGGGGAAGA [ctspaired]”: the binding signal (log2 fold change) is -0.0804.

In the case of “UUUUUUUUUUGAGAGCGACACGCUCUUCUG [tttttgagapaired]”, the binding signal (log2 fold change) amounted to 0.381.

Regarding “UUUUUUUUUUGAGAGGGGAGCCCUUUCCAG [tttttgagapaired]”, the binding signal (log2 fold change) worked out at 0.448.

Regarding “UUCUCUCUUCCUCCAUGGGAGGGAGGGAGA [ctspaired]”, the binding signal (log2 fold change) was -1.

“GGUGGUUGUGUUGGAUUCUAACACAGCUAC [gtspaired]”: the binding signal (log2 fold change) was -0.662.

Turning to “UUUUUUUUUUGAGAGGGGAACCCUCUCCGG [tttttgagapaired]”, the binding signal (log2 fold change) came out at 0.252.

Consider “UUUUUUUUUUGAGACCGUGGCGGUCUCCUG [tttttgagapaired]”, for which the binding signal (log2 fold change) turned out to be 0.72.

On to “GUGGUUGGUGUUGGCAUCUAACACCAGCCA [gtspaired]”, for which the binding signal (log2 fold change) is -0.612.

Consider “UUUUUUUUUUGAGAACGAUACGUUCUCCAG [tttttgagapaired]”, for which the binding signal (log2 fold change) was determined as 0.042.

On to “GGUGUGUGUGUUGGUCCCUAACACACGCAC [gtspaired]”, for which the binding signal (log2 fold change) is -0.374.

With “UUUUUUUUUUGAGACGGCAGCCGUUUCCAG [tttttgagapaired]”, the binding signal (log2 fold change) amounted to 0.574.

As for “UUUUUUUUUUGAGACUGGUACAGUCUUCUA [tttttgagapaired]”, the binding signal (log2 fold change) stood at 0.228.

On to “GUGUGGUGUGUUGGCAUCUAACACACCGCA [gtspaired]”, for which the binding signal (log2 fold change) was -1.07.

Take “UUUUUUUUUUGAGAUGGUUUCCGUCUUCUA [tttttgagapaired]”: the binding signal (log2 fold change) is 0.514.

For “UUUUUUUUUUGAGACUGGGGCAGUCUCCAG [tttttgagapaired]”, the binding signal (log2 fold change) amounted to 0.675.

Take “UUUUUUUUUUGAGACUGGCGCAGUCUCCUG [tttttgagapaired]”: the binding signal (log2 fold change) is 0.626.

Regarding “UUUUUUUUUUGAGACCGCAUCGGUCUCCUA [tttttgagapaired]”, the binding signal (log2 fold change) stood at 0.295.

Consider “UUUUUUUUUUGAGACUGAUGCAGUCUCCGG [tttttgagapaired]”, for which the binding signal (log2 fold change) was found to be 0.514.

“UUUUUUUUUUGAGAACGGGUCGUUCUCCUA [tttttgagapaired]”: the binding signal (log2 fold change) was found to be 0.12.

With “UUUUUUUUUUGAGAACGAAACGUUCUCCAG [tttttgagapaired]”, the binding signal (log2 fold change) was -0.0339.
